Hit rate of the full screen: of about 220,000 compounds, about 5,700 (2.6%) were called active. Inconclusive means that the source gave no clear call. Such entries were picked first, then a sample of the others. The call rests on the fitted dose curve; in most records, active means well fitted inhibition curve with a large enough effect; inconclusive means small, poorly fitted or top-dose-only effect; inactive means no such curve, though single readings can be large or run the other way. Potencies beside an inconclusive call are fits to weak or partial responses and may not hold up.
Molecular target: Lysine-specific demethylase 5B (Homo sapiens) (UniProt Q9UGL1)
Test: Primary screen for KDM5B Histone Demethylases FDH-coupled qHTS; further: nearly all actives have a fitted effect of over 70% in size; on activity change, negative = inhibition: 0% is about no effect
Conditions: FDH-coupled NADH fluorescence (FDH is formaldehyde dehydrogenase); activity change, negative = inhibition: at 57.7 µM (top of the series) unless noted
How it was run: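 Measured: NADH fluorescence change, 30 min, RT. System: KDM5BΔAP 200 nM final, H3K4me3 peptide, α-KG, Fe(II), ascorbate, NAD⁺ plus FDH, pH 7.5 HEPES. Compounds: titrated, 10 min pre-incubation with enzyme.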
Potency means the concentration at half of the fitted maximal effect; tags describe the fitted curve by direction and shape.

Chain of UniProt Q9UGL1 (Q9UGL1 whole entry, looked up): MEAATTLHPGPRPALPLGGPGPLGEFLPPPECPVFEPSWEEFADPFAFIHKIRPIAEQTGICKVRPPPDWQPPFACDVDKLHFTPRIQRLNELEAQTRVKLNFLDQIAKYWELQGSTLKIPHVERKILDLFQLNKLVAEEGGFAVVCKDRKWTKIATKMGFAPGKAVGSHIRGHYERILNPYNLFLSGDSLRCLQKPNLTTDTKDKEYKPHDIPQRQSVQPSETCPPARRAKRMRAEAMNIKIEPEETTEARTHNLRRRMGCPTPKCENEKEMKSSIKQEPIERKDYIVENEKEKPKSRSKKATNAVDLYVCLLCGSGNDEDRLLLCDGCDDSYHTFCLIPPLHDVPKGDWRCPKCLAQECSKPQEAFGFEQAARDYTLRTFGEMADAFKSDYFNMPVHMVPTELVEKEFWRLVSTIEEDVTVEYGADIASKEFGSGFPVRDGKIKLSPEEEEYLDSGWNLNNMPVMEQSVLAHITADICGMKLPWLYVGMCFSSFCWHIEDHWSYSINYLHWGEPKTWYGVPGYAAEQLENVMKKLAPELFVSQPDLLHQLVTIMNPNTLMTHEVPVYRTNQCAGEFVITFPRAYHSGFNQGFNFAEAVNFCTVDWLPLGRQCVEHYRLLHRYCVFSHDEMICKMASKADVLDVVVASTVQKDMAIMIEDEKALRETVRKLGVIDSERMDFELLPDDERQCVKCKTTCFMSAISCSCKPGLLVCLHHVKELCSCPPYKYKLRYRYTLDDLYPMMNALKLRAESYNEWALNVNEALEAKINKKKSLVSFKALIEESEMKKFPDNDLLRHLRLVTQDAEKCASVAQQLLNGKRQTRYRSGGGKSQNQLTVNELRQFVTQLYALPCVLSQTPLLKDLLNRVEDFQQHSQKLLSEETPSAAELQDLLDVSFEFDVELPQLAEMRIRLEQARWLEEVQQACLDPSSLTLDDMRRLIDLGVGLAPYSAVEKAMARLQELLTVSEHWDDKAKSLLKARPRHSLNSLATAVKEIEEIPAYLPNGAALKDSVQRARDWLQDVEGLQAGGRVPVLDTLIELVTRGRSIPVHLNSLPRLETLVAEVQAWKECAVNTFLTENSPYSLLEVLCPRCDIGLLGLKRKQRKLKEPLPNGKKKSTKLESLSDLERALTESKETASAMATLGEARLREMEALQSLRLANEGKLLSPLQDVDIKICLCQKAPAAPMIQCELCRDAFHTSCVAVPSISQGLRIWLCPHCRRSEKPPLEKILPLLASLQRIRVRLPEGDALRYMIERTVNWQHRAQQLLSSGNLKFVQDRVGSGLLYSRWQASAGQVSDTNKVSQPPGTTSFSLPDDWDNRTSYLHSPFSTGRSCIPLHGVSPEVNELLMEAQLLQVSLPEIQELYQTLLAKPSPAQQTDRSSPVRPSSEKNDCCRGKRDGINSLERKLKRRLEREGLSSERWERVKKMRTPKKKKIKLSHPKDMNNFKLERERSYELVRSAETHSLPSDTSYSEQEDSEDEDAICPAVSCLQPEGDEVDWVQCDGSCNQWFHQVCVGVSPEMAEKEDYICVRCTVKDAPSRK

SMILES | Potency | activity change, negative = inhibition
COc1cccc2c1cc1c(=O)n(CC(=O)N3CCN(c4cccc(Cl)c4)CC3)nc(C)n12 | inconclusive: 31.6 µM [inhibitor, partial curve, poor fit] | 
CNc1ccc(C)cc1C(=O)NC(C(=O)O)c1c(C)n[nH]c1C (stereo unspecified) | active: 31.6 µM | 
CCCOc1ccc(CNC(=O)c2ccc3c(c2)N(Cc2ccccc2)CCS3)cc1 | inconclusive: 28.2 µM [inhibitor, partial curve, poor fit] | 
O=Cc1ccc(-c2ccc(Br)cc2Cl)o1 |  | inactive: 19.5%
C[C@@]1(O)CCN(Cc2cc(F)c(F)cc2F)C[C@H]1N1CCCC1 | inconclusive: 31.6 µM [inhibitor, partial curve, poor fit] | 
Cc1ccc(-c2ccc(=O)n(CC(=O)NCCc3ccc(Cl)cc3)n2)cc1 | inconclusive: 17.8 µM [inhibitor, partial curve, poor fit] | 
CCCOc1ccc(-c2nc3ccc4ccccc4c3c3c2CCC3)cc1 |  | inactive: 2.76%
Cc1nc(CCNC(=O)C2CCN(S(=O)(=O)c3cccc(C(F)(F)F)c3)CC2)cs1 |  | inactive: 9.44%
Cc1cc(C)nc(CNC(=O)c2ccc3nc(-c4ccc(F)cc4)cn3c2)n1 | active: 28.2 µM | 
Cc1ccc(CSC2=Nc3ccccc3C3=NC(CC(=O)NCc4cccs4)C(=O)N23)c(C)c1 (stereo unspecified) | inconclusive: 39.8 µM [inhibitor, single point] | 
CCOC(=O)/C=C/c1ccc(N)cc1 | inconclusive: 35.5 µM [inhibitor, partial curve, poor fit] | 
COc1cc(-c2nc3c([nH]2)CCCNC3=O)ccc1O | inconclusive: 31.6 µM [inhibitor, single point] | 
CC(C)(C)NC(=O)CSc1nc(-c2ccco2)nc2ccccc12 | inconclusive: 17.8 µM [inhibitor, partial curve, poor fit] | 
COc1ccc(-c2cn3c(n2)sc2cc(C(=O)Nc4cccc(SC)c4)ccc23)cc1 | inconclusive: 50.1 µM [inhibitor, partial curve, poor fit] | 
Cc1ccccc1Cc1noc(-c2nc(-c3ccccc3F)no2)n1 |  | inactive: 6.64%
O=c1cc(-c2ccc(F)cc2)oc2ccc(F)cc12 |  | inactive: 5.55%
COc1ccc(OC)c(C2CCCN2CC(=O)N(CCC#N)c2ccccc2F)c1 (stereo unspecified) |  | inactive: -1.84%
CC(C)c1ccccc1NC(=O)Cn1cccc1-c1nc(-c2ccccc2)no1 | inconclusive: 35.5 µM [inhibitor, single point] | 
COc1ccc(OC)c(CNC(=O)c2ccc(N3CC4CC(C3)[C@H]3CCCC(=O)N3C4)nc2)c1 (stereo partly specified) |  | inactive: -22%
Cc1c(C)c(C)c(S(=O)(=O)Nc2cc(Cl)ccc2C(=O)N(C)C)c(C)c1C |  | inactive: -9.97%
COC(=O)c1[nH]c2cc(OC)ccc2c1NC(=O)CN1CCCCC1C (stereo unspecified) |  | inactive: -5.18%
CC(C)c1nc2ccccc2n1CC(=O)NC1CCCN(c2ncccn2)C1 (stereo unspecified) | inconclusive: 31.6 µM [inhibitor, partial curve, poor fit] | 
O=C1COc2ccc(-c3ccncc3)nc2CN1Cc1ccc(F)cc1 | active: 25.1 µM | 

SMILES | Potency | activity change, negative = inhibition
C[S+](=O)([O-])N1Cc2ccccc2CC2(CCCN2CC2CCCCC2)C1 (stereo unspecified) | inconclusive: 56.2 µM [inhibitor, partial curve, poor fit] | 
CCCCn1c(=O)c2c(nc(-n3nc(C)c(C)c3C)n2Cc2ccc(F)cc2)n(C)c1=O |  | inactive: 1.46%
CN(C)c1cc(N2CCCC(NC(=O)NCc3ccccc3)C2)ncn1 (stereo unspecified) |  | inactive: 24%
CCCCn1c(=O)[nH]c(=O)c2c1nc(CNc1cc(F)ccc1C)n2CC |  | inactive: -17.5%
Cc1ccc(-c2nc(Nc3ccc(C(=O)O)cc3)c3ccccc3n2)cc1 | inconclusive: 39.8 µM [inhibitor, single point] | 
c1ccc(-c2noc(-c3cncnc3NC3CCc4ccccc43)n2)cc1 (stereo unspecified) | inconclusive: 5.01 µM [inhibitor, single point] | 
CCc1cc(C(=O)O)c2c(C3CC3)nn(-c3ccccc3F)c2n1 | inconclusive: 39.8 µM [inhibitor, single point] | 
c1ccc2c(CN3CCC[C@H]3c3nc(-c4ccc(OC5CCCCC5)nc4)no3)c[nH]c2c1 | inconclusive: 25.1 µM [inhibitor, single point] | 
N#Cc1nc(-c2ccco2)oc1N1CCN(CC(=O)N2CCCCC2)CC1 |  | inactive: 346%
CC(C)c1nc2c(NC(=O)COc3ccccc3)cccn2n1 | inconclusive: 22.4 µM [inhibitor, partial curve] | 
CC(=O)N1Cc2ccccc2CC2(CCN(Cc3ccccc3)C2)C1 (stereo unspecified) |  | inactive: -14% [at 149 µM]
Cc1ccc(C2Cc3cc(O)c(O)cc3CN2)cc1 (stereo unspecified) | inconclusive: 22.4 µM [inhibitor, single point] | 
COc1cccc2cc(CC(=O)c3ccc(C(C)C)cc3)c(=O)oc12 |  | inactive: -14.1%
CCc1nnc(SC(CC)C(=O)Nc2ccc(OC)c(Cl)c2)c2cc3occc3n12 (stereo unspecified) | inconclusive: 25.1 µM [inhibitor, single point] | 
CN(CC(=O)Nc1ccc(OC(F)(F)F)cc1)C(=O)c1n[nH]c2ccccc12 |  | inactive: 5.67%
N#Cc1nc(COc2ccccc2Cl)oc1NCCc1ccccc1 | inconclusive: 39.8 µM [inhibitor, single point] | 
Cc1cc(C(=O)N2Cc3nnc(C)n3C(C)C2)c(-c2ccccc2)o1 (stereo unspecified) | inconclusive: 28.2 µM [inhibitor, partial curve, poor fit] | 
COc1ccc(Nc2nccc(-c3ccc(C#N)cc3)n2)cc1 |  | inactive: 36.3%
Cc1ccc(NC(=S)NCC2(N(C)C)CCCCC2)cc1Cl |  | inactive: 17.5%
O=c1c2nc(-c3ccoc3)ccc2ncn1-c1ccccc1 | inconclusive: 31.6 µM [inhibitor, partial curve, poor fit] | 
CCC(CC)C(=O)Nc1ccc2oc(-c3ccc(OC)cc3)nc2c1 | inconclusive: 1.58 µM [inhibitor, partial curve, poor fit] | 
COc1ccc2nc(-n3ncc4c3NC(=O)CC4c3cccc(O)c3)sc2c1 (stereo unspecified) | inconclusive: 28.2 µM [inhibitor, single point] | 
COc1ccc(-c2ncc(CN3CCCC4(C3)CN(C)C(=O)O4)cn2)cc1 (stereo unspecified) | active: 14.1 µM | 
